Laboratory results taken from publication PMC6451091.
This is one part of the list. For part of these data: At the low end of the ranking, values are background and their order means little. For part of these data: The protein was read in a cell extract, so binding may be indirect.

What was measured:
Settings in all cases: 20 mM HEPES pH 7.9, 100 mM NaCl, 1 mM DTT, 0.2 mg/mL BSA, 0.02% Triton X-100, 2% milk, 0.4 mg/mL salmon testes DNA; 1 h; temperature not stated; high values mean tight binding; double strand, one strand shown; sequences stand for … in GCCTAGCAC…GTGCTAGGTCTTGATTCGCTTGACGCTGCTG
PU.1 (IVT) = PU.1 (IVT) (UniProt P17947); test: protein-binding microarray (PBM)
[1] = molecular target: PU.1 (endogenous, THP-1 nuclear extract) (UniProt P17947); test: nuclear extract protein-binding microarray (nextPBM)
[2] = molecular target: T1, FLI1 (endogenous, THP-1 nuclear extract) (UniProt Q01543); test: as above
T1 sequence: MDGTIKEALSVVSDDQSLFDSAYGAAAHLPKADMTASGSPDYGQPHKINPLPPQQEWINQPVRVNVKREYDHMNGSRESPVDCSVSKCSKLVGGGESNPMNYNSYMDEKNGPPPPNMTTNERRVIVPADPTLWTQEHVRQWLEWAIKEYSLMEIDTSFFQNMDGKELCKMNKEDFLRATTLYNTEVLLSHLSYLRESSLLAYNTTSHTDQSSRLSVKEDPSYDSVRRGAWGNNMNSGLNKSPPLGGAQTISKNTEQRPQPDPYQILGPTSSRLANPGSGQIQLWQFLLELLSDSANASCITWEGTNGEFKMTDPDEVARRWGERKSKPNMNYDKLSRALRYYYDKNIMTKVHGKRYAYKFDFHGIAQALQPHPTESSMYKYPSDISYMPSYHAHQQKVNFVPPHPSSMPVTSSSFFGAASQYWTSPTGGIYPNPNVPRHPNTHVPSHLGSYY

Sequence | binding signal (PU.1 (IVT)) | binding signal [1] | binding signal [2]
GAAAAGGGGAAGTTGGGTTG | 8.21 z-score | 7.47 z-score | 4.24 z-score
CCCAAGAGGAAGTGGTAGGC | 4.34 z-score | 5.47 z-score | 2.92 z-score
TGAAAGAGTAAGTGCAACCA | 0.422 z-score | 0.187 z-score | 0.121 z-score
GAAATGAGGAACTGCTCCTA | 6.58 z-score | 6.69 z-score | 2 z-score
AGAAAAGGGAAGTGTTAAAT | 6.48 z-score | 6.41 z-score | 2.54 z-score
GAAATTAGGAAGTACTGTGA | 4.94 z-score | 4.5 z-score | 1.69 z-score
AGAGAGAGGAAGTGATTACA | 4.98 z-score | 4.74 z-score | 2.99 z-score
TAAAAGAGGAAGTAGCCAAA | 8.23 z-score | 7.19 z-score | 3.69 z-score
GGGAGGAGGAACTGGGGATC | 1.9 z-score | 2.14 z-score | 0.466 z-score
GAGAGGAGGAAGTACTGTGG | 4.34 z-score | 5.06 z-score | 2.37 z-score
GAAAAAAGGAAGTAGTATAA | 6.96 z-score | 6.63 z-score | 3.15 z-score
AATTAGAGGAAGTGGATTAT | 6.24 z-score | 6.41 z-score | 3.17 z-score
TAATAGAGGAAGTTGGCACA | 6.59 z-score | 6.53 z-score | 3.34 z-score
GCCAAGAGGAAGTGGGCAGA | 4.28 z-score | 5.02 z-score | 2.87 z-score
GGAAAGAGGAACTCTCAGCA | 5.92 z-score | 6.12 z-score | 2.54 z-score
GCAAAAAGGAACTGTGCCCC | 1.53 z-score | 1.38 z-score | 0.733 z-score
AAAAGGAGGAAGTGATCCCT | 6.77 z-score | 6.78 z-score | 3.34 z-score
CAAATGACGAACTGATGCGG | 0.0688 z-score | 0.263 z-score | 0.0726 z-score
GATAAGATGAAGTCCTCTGT | 0.661 z-score | 0.282 z-score | -0.195 z-score
TAAAAGAGGAAGTGCAACCA | 8.29 z-score | 7.67 z-score | 4.91 z-score

Sequence | binding signal (PU.1 (IVT)) | binding signal [1] | binding signal [2]
GGTGGGAGGAAGTGCTTATT | 4.11 z-score | 3.76 z-score | 2.85 z-score
AAATAAAGGAAGTGTGCTGC | 4.45 z-score | 4.36 z-score | 2.38 z-score
TGAAAGGGGAAGTCAGATAG | 6.45 z-score | 6.64 z-score | 2.68 z-score
GAAAACAGGAAGTCTAAAGG | 7.3 z-score | 6.63 z-score | 4.54 z-score
AAGATGAGGAAGTGAGTGTA | 6.13 z-score | 6.4 z-score | 2.74 z-score
AAAAAAAGGAAGTGGACAAA | 6.62 z-score | 6.29 z-score | 3.04 z-score
TGAAAAGGGAAGTGGAAAAA | 5.97 z-score | 6.09 z-score | 2.91 z-score
GCCGGGAGGAAGTGCCCGAC | 3.47 z-score | 3.65 z-score | 2.94 z-score
AGAAGGAGGAAGTGAAGGCA | 4.97 z-score | 6 z-score | 3.12 z-score
CAAATGAGGAAGTAGAGAAA | 7.99 z-score | 7.3 z-score | 3.77 z-score
ACAATGAGGAAGTCAGCCAA | 5.28 z-score | 6.37 z-score | 2.07 z-score
ACAAAAAGGAGCTGTGCCCC | -0.481 z-score | -0.212 z-score | -0.391 z-score
GGTTTGGGGAAGTGGGCAGA | 4.75 z-score | 4.99 z-score | 1.76 z-score
CAATAGAGGAAGTGGTTAAG | 6.51 z-score | 6.63 z-score | 3.42 z-score
CAACAAGGGAAGTGGATGCT | 1.94 z-score | 2.19 z-score | 1.56 z-score
GGGAACGGGAAGTGAGTGTT | 4.71 z-score | 4.95 z-score | 2.8 z-score
TCAAGGAGGAAGTGAGAGAT | 4.31 z-score | 5.23 z-score | 2.65 z-score
TGTAAAAGGAACTGGTGTTC | 1.7 z-score | 1.41 z-score | 0.855 z-score
TGTTTGAGGAAGTGGTGTGG | 5.87 z-score | 6.27 z-score | 2.7 z-score
TAAAAGAGGAAGTCAGTGGG | 7.67 z-score | 7.06 z-score | 3.61 z-score

Sequence | binding signal (PU.1 (IVT)) | binding signal [1] | binding signal [2]
GAAAAGAGGAAGTCTAACTA | 8.03 z-score | 7.13 z-score | 4.07 z-score
TTAAAGGGGAAGTGAACTCT | 6.68 z-score | 6.98 z-score | 3.23 z-score
ACGAGGAGGAAGTGGGGTAA | 4.31 z-score | 4.31 z-score | 2.83 z-score
GAAAACAGGACGTCCCATAG | 0.758 z-score | 0.451 z-score | 0.961 z-score
CGAATGGGGAAGTGCTAAAC | 6.27 z-score | 6.65 z-score | 2.87 z-score
GAAATGAGGAAATGCTGAAG | 4.47 z-score | 4.97 z-score | 1.84 z-score
GATTTGAGGAAGTGAAATGG | 6.75 z-score | 6.91 z-score | 2.89 z-score
AGAAAGGGGAACTCGGCCAC | 4.66 z-score | 5.5 z-score | 1.4 z-score
ACATTGGGGAAGTGGGGAAA | 3.69 z-score | 4 z-score | 1.53 z-score
CAAAAGAGGAAGTACAGCCA | 8.06 z-score | 7.19 z-score | 3.97 z-score
AGAAAGAGGAAGGGGAGGTT | 3.89 z-score | 4.72 z-score | 1.83 z-score
TAAGAGAGGAAGTGACTGAG | 4.76 z-score | 4.74 z-score | 3.12 z-score
AAAATGAGGAAGAGATTTAG | 5.12 z-score | 4.97 z-score | 1.69 z-score
AGAAAAAGGAACTGCAGACT | 3.67 z-score | 3.24 z-score | 1.16 z-score
GGAAAGGGGAAGTTGGCAGC | 7.8 z-score | 7.42 z-score | 4.3 z-score
GGAAAGAGGAACTCTGCTCT | 5.76 z-score | 6.3 z-score | 1.96 z-score
TGCAGAGGGAAGTGCCTGGG | 2.62 z-score | 2.87 z-score | 1.38 z-score
AGAAAGAGGAAGTCGAGGTG | 7.74 z-score | 7.26 z-score | 4.03 z-score
GAAAAAGGGAAGTGACATCA | 6.82 z-score | 7.09 z-score | 2.98 z-score
CGAAAGAGGAAGTCCTCCTC | 7.41 z-score | 7.14 z-score | 3.47 z-score
